Laboratory results reported in PubChem BioAssay AID256 (DTP/NCI, 2004).
Inconclusive results and toxic doses are left out. Certain results were filed several times, with different values. The other results are left out here. An entry can have further records. Values given together repeat one measurement in other runs, samples, wells, individuals or studies. A tag in brackets gives the origin of a value. The letters are not those of the source and start again with each entry.

System: CD2F1 mice, L1210 leukemia ip, survival T/C
Assay: NCI In Vivo Anticancer Drug Screen. Data for tumor model L1210 Leukemia (intraperitoneal) in CD2F1 (CDF1) mice
Conditions: higher = longer survival
In short: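 Tumor-bearing mice (transplanted tumor) were split into treated and vehicle control groups, and the measured endpoint of each treated group was divided by that of its vehicle controls.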

[1] = endpoint: median survival time, dose: 50.0 mg/kg/injection, schedule: Q04DX003 (ip), vehicle: saline with Tween-80
[2] = endpoint: median survival time, dose: 0.75 mg/kg/injection, schedule: Q01DX009 (ip), vehicle: water

CC(C)C(N)C(=O)Nc1nncs1 (stereo unspecified)
T/C (endpoint: median survival time, dose: 200.0 mg/kg/injection, schedule: Q01DX009 (ip), vehicle: saline): 115 % of control and 164 % of control

CN(C)c1ccc(N=Nc2cccc(C(=O)[O-])c2)cc1.CN(C)c1ccc(N=Nc2cccc(C(=O)[O-])c2)cc1.NC1CCCCC1N.[Pt+4]
T/C (endpoint: median survival time, dose: 25.0 mg/kg/injection, schedule: Q04DX003 (ip), vehicle: saline with Tween-80): 107 % of control and 175 % of control
T/C [1]: 116 % of control and 375 % of control

N#Cc1c(-c2ccc(F)cc2)c(-c2ccc(F)cc2)nn(CCO)c1=O
T/C (endpoint: median survival time, dose: 200.0 mg/kg/injection, schedule: Q01DX005 (ip), vehicle: water): 112 % of control, 155 % of control, 162 % of control

COc1cccc2c1C(=O)c1c(O)c3c(c(O)c1C2=O)C[C@](O)(C(=O)CO)CC3OC1CC(N)C(OC2CCCCO2)C(C)O1 (stereo partly specified)
T/C [2]: 114 % of control and 164 % of control
T/C (endpoint: median survival time, dose: 1.5 mg/kg/injection, schedule: Q01DX009 (ip), vehicle: water): 121 % of control and 177 % of control
T/C (endpoint: median survival time, dose: 12.0 mg/kg/injection, schedule: Q01DX009 (ip), vehicle: water): 110 % of control and 181 % of control

C/C=C/C=C\C=C/C(O)CC(OP(=O)(O)O)C(C)(O)/C=C/C1CC=CC(=O)O1 (stereo unspecified)
T/C [2]: 119 % of control and 155 % of control

CC(=O)c1cccc(N=NN(C)C)c1
T/C (endpoint: mean survival time, dose: 104.0 mg/kg/injection, schedule: Q01DX009 (ip), vehicle: Klucel (hydroxypropylcellulose) (HPC)): 117 % of control and 152 % of control

CC(C)CCn1cnc2c(=S)nc(N)[nH]c21
T/C (endpoint: mean survival time, dose: 200.0 mg/kg/injection, schedule: Q01DX001 (ip), vehicle: saline with Tween-80): 109 % of control and 159 % of control
T/C (endpoint: mean survival time, dose: 400.0 mg/kg/injection, schedule: Q01DX001 (ip), vehicle: saline with Tween-80): 120 % of control and 165 % of control

COc1cc(NS(C)(=O)=O)ccc1Nc1c2ccccc2nc2ccccc12
T/C (endpoint: median survival time, dose: 2.0 mg/kg/injection, schedule: Q01DX009 (ip), vehicle: saline with Tween-80): 123 % of control and 182 % of control
T/C (endpoint: median survival time, dose: 8.0 mg/kg/injection, schedule: Q01DX009 (ip), vehicle: saline with Tween-80): 111 % of control, 151 % of control, 185 % of control
T/C (endpoint: median survival time, dose: 16.0 mg/kg/injection, schedule: Q01DX009 (ip), vehicle: saline with Tween-80): 87 % of control and 151 % of control

CN(C)N=Nc1ccc(S(=O)(=O)Nc2ncccn2)cc1
T/C (endpoint: mean survival time, dose: 100.0 mg/kg/injection, schedule: Q01DX009 (ip), vehicle: saline with Tween-80): 103 % of control and 161 % of control

CC[C@@]1(O)C[C@H](OC2CC(N(C)C)C(OC3CC(O)C(OC4CCC(=O)C(C)O4)C(C)O3)C(C)O2)c2c(cc3c(c2O)C(=O)c2c(O)ccc(O)c2C3=O)[C@H]1C(=O)OC (stereo partly specified)
T/C (endpoint: mean survival time, dose: 2.0 mg/kg/injection, schedule: Q01DX009 (ip), vehicle: water): 99 % of control and 162 % of control

O=S(=O)(O)O.[NH-]C(c1ccccc1)C([NH-])c1ccccc1.[Pt+2] (stereo unspecified)
T/C (endpoint: mean survival time, dose: 6.25 mg/kg/injection, schedule: Q04DX003 (ip), vehicle: saline with Tween-80): 118 % of control [sample A] and 180 % of control [sample B]

COC(C(=O)C(O)C(C)O)C1CC2C=C3C=C(OC4CC(OC5CC(O)C(OC)C(C)O5)C(OC(C)=O)C(C)O4)C(C)C(=O)C3=C(O)C2=C(O)C1OC1CC(OC2CC(OC3CC(C)(O)C(O)C(C)O3)C(O)C(C)O2)C(O)C(C)O1 (stereo unspecified)
T/C (endpoint: mean survival time, dose: 4.0 mg/kg/injection, schedule: Q01DX009 (ip), vehicle: saline with Tween-80): 108 % of control and 163 % of control

COC(=O)NC1=C(N2CC2)C(=O)C(NC(=O)OC)=C(N2CC2)C1=O
T/C (endpoint: mean survival time, dose: 3.0 mg/kg/injection, schedule: Q01DX009 (ip), vehicle: saline): 120 % of control and 179 % of control

O=C(O)c1cc(C(=O)O)c(C(=O)O)cc1C(=O)O.[NH2-].[NH2-].[NH2-].[NH2-].[Pt+2].[Pt+2]
T/C (endpoint: mean survival time, dose: 1.56 mg/kg/injection, schedule: Q04DX003 (ip), vehicle: water): 95 % of control and 150 % of control

C=CC(=O)OCCCS(=O)(=O)[O-].C=CC(=O)OCCCS(=O)(=O)[O-].NC1CCCCC1N.[Pt+4]
T/C [1]: 119 % of control and 156 % of control
